Laboratory results from article PMC12136788.
The list shows a part of the results.

T1: UNK ZnF1-3 (human, UniProt Q9C0B0 31-174)
T1 sequence: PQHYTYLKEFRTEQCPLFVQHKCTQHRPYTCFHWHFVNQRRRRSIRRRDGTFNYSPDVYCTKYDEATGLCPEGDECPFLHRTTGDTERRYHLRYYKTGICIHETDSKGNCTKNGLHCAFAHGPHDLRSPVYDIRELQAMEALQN

B1: chr3:105756983:105756984:-_ENSMUSG00000000563_ENSMUST00000118209|mus_hu|motif|central (ssRNA)
RNA: GGGAGUUCUACAGUCCGACGAUCAGCAAAGUCUGCAACAAAGGGACCAUAUUUUUUAAUUCCAUAGACCAUUACACCGGGUACUGAUAGGGCAGUGAAGGUCUCUGCGCUAAUCACAUAUAUUUCUUUGGAUAAAGCGUACAACAACAGAGGAUUGAGCAUCA
B2: chr4:25749455:25749456:-_ENSG00000091490_ENST00000264868|hu_hu|hu_hu_hu_mus_False|38_58 (ssRNA)
RNA: GGGAGUUCUACAGUCCGACGAUCGCACUAUGACCUCUAGAAAAAUCCACAGGGGGAAAAAAUGUAAACCAAUGUACAAAGCUAUUGCCUUCCCUGUAUUUCCAGGCUUUGUCUCAAGGCUCCUUCUAGCUGCUGGAUUUGGGACAACAGAGGAUUGAGCAUCA
B3: chr9:96246283:96246284:-_ENSMUSG00000032412_ENSMUST00000034983|mus_hu|motif|central (ssRNA)
RNA: GGGAGUUCUACAGUCCGACGAUCCUGAAGCAUAACCCACAUCGUGAAUGAGAAGAGUGCAGCCAGGAACCCAUAAAAAACGGGGUAGAAGAGCAAGAUCAAACCCCAGCUCUUGGCGGUGCGCCCCAGGAAUUCUCCGGUGGUCAACAGAGGAUUGAGCAUCA
B4: chr7:140404665:140404666:+_ENSG00000090266_ENST00000247866|hu_hu|hu_hu_hu_mus_False|1_18 (ssRNA)
RNA: GGGAGUUCUACAGUCCGACGAUCUGCUCCUACUCGUCCAGAGAGUUUACAGUGUCAGUCCUCGUCAUCAGGAGGGAUUCCCAGUUCUUCAUCUGUCCACUGUGAAGGAUCUGGAUACGGAAAGUGACCCAGCACAGCUUCUGACAACAGAGGAUUGAGCAUCA
B5: chr10:90581586:90581587:-_ENSMUSG00000061904_ENSMUST00000076694|mus_hu|FALSE|FALSE (ssRNA)
RNA: GGGAGUUCUACAGUCCGACGAUCAGCUUCCAUAGGAGCCAGGGCAAUGUCAGCAAAGAAUUCAGCACUGGCAGAGGCAGCCAAAUAUAGUGAUGUGCGCCAGAGAUAAGUAUUCUCCUCUCCAAGCAUAUUGCUAUACAAGACCAACAGAGGAUUGAGCAUCA
B6: chr9:35286173:35286174:+_ENSMUSG00000038119_ENSMUST00000042842|mus_mus|FALSE|FALSE (ssRNA)
RNA: GGGAGUUCUACAGUCCGACGAUCAGUAUUAUUGUUACUUGAUGGAACAUACGUCCAUUUCAGCAUGAUCUGAGUGUCGCUAACAGCCUCUGUGUAUGCGAUGUGAGGUCCAGUUAUUGGGCGAUUGGAAAAACGAUUUGGGAACAACAGAGGAUUGAGCAUCA
B7: chr15:51794541:51794542:-_ENSMUSG00000022314_ENSMUST00000022927|mus_mus|FALSE|FALSE (ssRNA)
RNA: GGGAGUUCUACAGUCCGACGAUCCAUGGAAGUCUUAGUUUUAAAACUGAUUUCCCCCCCAUAAAAGUGCCAACACUUAAGCUAGAACUUUUCAACAUAAUUUUGUCCUACAAAGUGAACAUGUUUUGAUAUUUAUAUAGUCACCAACAGAGGAUUGAGCAUCA
B8: 43613574_43613694_3151_3pUTR_ENSMUSG00000032012_ENSMUST00000034510|mouse|control|control (ssRNA)
RNA: GGGAGUUCUACAGUCCGACGAUCAUGUUUGUGAUCCCUCAGCGAGUGUCACUUAGGGCUGAGUUGGCUGAGAUCCUGACAGGCAGGCCCUGGGAAUGCCCAUUUAGAAUGAGGGUAAUCUGGGGGCACAGAUGGAGAAACCGACAACAGAGGAUUGAGCAUCA
B9: chr9:120860725:120860726:+_ENSMUSG00000006932_ENSMUST00000007130|mus_hu|FALSE|FALSE (ssRNA)
RNA: GGGAGUUCUACAGUCCGACGAUCCAUUUUAGCUCCUUCUUGAUGUAAUAAAAGGUUGUGGAGAGUUGUAAUGGCAUAAAACAACACAGAAUCCACUGGUGAACCAAGCAUUUUCACCAGGGCAGGAAUGCCUCCAGACUUAAACAACAGAGGAUUGAGCAUCA
B10: chr17:88398918:88398919:-_ENSMUSG00000005371_ENSMUST00000130379|mus_hu|motif|central (ssRNA)
RNA: GGGAGUUCUACAGUCCGACGAUCAUGAAUUUUGUUAUGCCGAACAAUUGGACAACUGUUUGUCCUAAUUUGAAUUCCUGCGGAUGCAUUGCCAUAAAUGUCAUUUCCUUCAAUAAGGCCUCGUCCAUCACCAAAGAUGUAAACCAACAGAGGAUUGAGCAUCA
B11: chr1:65854986:65854987:+_ENSG00000116675_ENST00000371069|hu_mus|FALSE|FALSE (ssRNA)
RNA: GGGAGUUCUACAGUCCGACGAUCGAGGAUGCUGGGGUUCACAUCUUUUGUGCAGUAGUGUUCCCAUGGUGGAGUUAAGUCGAUCACUUUGUCUUGGGGCUGGACUUCUAUAUCCAGUGUCACUUGGAACAGCUGAGGAUAUUUCAACAGAGGAUUGAGCAUCA
B12: chr11:18503389:18503390:-_ENSG00000074319_ENST00000251968|hu_hu|hu_hu_hu_mus_True|48_48 (ssRNA)
RNA: GGGAGUUCUACAGUCCGACGAUCAUUUUCCAUUUUCUCCAGAGCAGAACUUAGUUCUUCAUCCUUCUUUUUCAAAAGUUCUAUGUUUUUAUCAACCUCAGCUACUUCUUGAUCUAAGCGGGUGACCAUCUCUUCCAGUUUCUGCAACAGAGGAUUGAGCAUCA
B13: 120980267_120980387_1903_3pUTR_ENSG00000164109_ENST00000296509|human|control|control (ssRNA)
RNA: GGGAGUUCUACAGUCCGACGAUCAAAGUAGGCUGACAAUAAGGCUAAGAGUAUAGUAAAGUACUAAAAUCAACACUUGUUCAACUGGAAUUGUUGGACUAAUUCCAAAGGACAUUUAUCUUUUCACAAUGAUGAAGUAAUAGCCAACAGAGGAUUGAGCAUCA
B14: chr3:52290438:52290439:-_ENSG00000164091_ENST00000296490|hu_hu|motif|central (ssRNA)
RNA: GGGAGUUCUACAGUCCGACGAUCUAUAUGCGUAUCUGUAUGCACACAGAUGUAUUUAAAUGAAGGUGCAUACACUGUGCGGAAAUACAAACAACAGAAAUCAAAGGUCAUAUAUAAAAACGCUAAAUAUGACAUAUAACACAGCAACAGAGGAUUGAGCAUCA
B15: 45364558_45364678_5291_3pUTR_ENSG00000175387_ENST00000356825|human|control|control (ssRNA)
RNA: GGGAGUUCUACAGUCCGACGAUCAAAUAAUUUUAACAAAAGGGAAAGCAUUUGACAGUGUUUAAAAGACAGACAAAUCAAGCAAAACUCAAUGUGGCUUAAGGUAAAAAAUACAACUAGGUAUUAAACAAUUUGUAAAAACUUCAACAGAGGAUUGAGCAUCA
B16: chr4:115894766:115894767:+_ENSMUSG00000028698_ENSMUST00000030464|mus_hu|mus_mus_mus_hu_True|28_68 (ssRNA)
RNA: GGGAGUUCUACAGUCCGACGAUCUUCCACACGGAAAUGUACUUCGGGUUUUCCAACGGCCAGUACCGUCCAGCCAAAACUACCCGAACAGGGUCCUCCCCCUCUCUUCUCUCCUCCACAACAAAAUGCCCCCGAACUUUCAAGCAACAGAGGAUUGAGCAUCA
B17: chr14:89307221:89307222:+_ENSG00000165533_ENST00000346301|hu_mus|hu_hu_hu_mus_False|58_58 (ssRNA)
RNA: GGGAGUUCUACAGUCCGACGAUCUCCUGUUUGGUUAGUGCCAGGGAGCUUCAAAGAUGUGCCAGGGCGUGGGACCUGAGCUAUAGCAUUUUCAUCCAGGAUCAUUUCAGCAAUUCCUUCCUGGUCCACAUCAAUUUCAUCUAUCAACAGAGGAUUGAGCAUCA
B18: chr7:16573483:16573484:-_ENSMUSG00000070808_ENSMUST00000094821|mus_hu|FALSE|FALSE (ssRNA)
RNA: GGGAGUUCUACAGUCCGACGAUCGGGGGCAGCGGCCGCCAGGAUCUGCCCGCCCACGUUGGCCGGCAGGGCUGAGAGCUGCUGCGGGAGCUGGACCGCCGGGGCGCCAGGCAGUAGGAACUGGUUCUGGCCCGGCAGCAUGUGCAACAGAGGAUUGAGCAUCA
B19: chr7:65705844:65705845:+_ENSG00000169902_ENST00000304842|hu_mus|hu_hu_hu_mus_False|18_88 (ssRNA)
RNA: GGGAGUUCUACAGUCCGACGAUCAAACGGAUCUUUGUUACAUAAAUAAGGGGCUGGCUCCCCAUGUUUAACAAUGACCUCCAGAAGGAAGGCUUGCAUGGCAGAAUCUAGCACUUCAUCAGUAACACCCGCCUCAUCCAAGCGCAACAGAGGAUUGAGCAUCA
B20: chr11:35642274:35642275:-_ENSMUSG00000018848_ENSMUST00000018992|mus_mus|FALSE|FALSE (ssRNA)
RNA: GGGAGUUCUACAGUCCGACGAUCCUGCUGACUUGGUGUCACGAUCAGGGGAGGGUUCUCCAAGUCUGGAUAUGCAGCCCUAAUGGCACAGCCAAAGACUUCCUGCAGGCGGCUGUUGAUGUUAAUCAUGUUUUUAGUUGGUUUCAACAGAGGAUUGAGCAUCA
B21: chr1:165623523:165623524:+_ENSG00000143198_ENST00000367886|perfect_dup|motif|central (ssRNA)
RNA: GGGAGUUCUACAGUCCGACGAUCAUAGCCAUAAGCAUAAAGAACUCGUCCAACAAUCCAGGCCAAGCCCAGGCCAGAAGCGGUACGCGGGUGGUAAACACCUCCAACAGCUAGAAAAAAUAAGAAGGGAGGAUACACUUCCAACAACAGAGGAUUGAGCAUCA
B22: chrX:119680447:119680448:-_ENSG00000158290_ENST00000371322|hu_mus|motif|central (ssRNA)
RNA: GGGAGUUCUACAGUCCGACGAUCAAACAAAAAAAUGCUCCUGAUCAUUAUCAUUUGCCUACAGUGGUUUUGCCAGCAUCGGUCGAUCUUUUUGAGAAAAAGAACACUAUCCAAUGAAUCUUCUCUGAACUGAUGAAUCUGUGCCAACAGAGGAUUGAGCAUCA

Biological target: T1, UNK ZnF1-3
Test: nsRBNS (natural sequence RNA bind-n-seq); RBNS binding buffer (assumed for nsRBNS): 25 mM Tris pH 7.5, 150 mM KCl, 3 mM MgCl2, 0.01% Triton X-100, 500 ug/ml BSA, 20 U/ml SUPERase-In, 4 C; UNK is unkempt and MSI1 is Musashi-1; names of the RNAs are library labels; protein concentration not given here; high values mean tight binding

Binder	binding signal
B1	2.26 enrichment R
B2	1.18 enrichment R
B3	1.55 enrichment R
B4	1.31 enrichment R
B5	2.02 enrichment R
B6	0.899 enrichment R
B7	0.94 enrichment R
B8	0.978 enrichment R
B9	1.69 enrichment R
B10	0.859 enrichment R
B11	0.878 enrichment R
B12	0.466 enrichment R
B13	0.778 enrichment R
B14	0.834 enrichment R
B15	2.68 enrichment R
B16	1.11 enrichment R
B17	0.905 enrichment R
B18	0.86 enrichment R
B19	0.565 enrichment R
B20	0.908 enrichment R
B21	1.56 enrichment R
B22	1.14 enrichment R
